From PubChem BioAssay AID1671193 (National Center for Advancing Translational Sciences (NCATS), 2021)
About 180 (0.12%) of roughly 150,000 compounds were called active. Inconclusive means that the source gave no clear call. Such entries were picked first, then a sample of the others. The call rests on the fitted dose curve; in most records, active means well fitted cell-killing curve with a large enough effect; inconclusive means small, poorly fitted or top-dose-only effect, or effect the other way; inactive means flat fitted curve, though single readings scatter. A potency beside an inconclusive call is a rough fit, not a confirmed value.

Assay: GF-AFC viability counterscreen for inhibitors of alpha-synuclein gene (SNCA) expression; further: nearly all actives have a fitted effect of over 30% in size;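 on activity change, negative = cytotoxicity: 0% = DMSO-treated cells and -100% = medium-only wells without cells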
Conditions: HEK-293-SNCA-luc viability, GF-AFC fluorescence, 24 h; activity change, negative = cytotoxicity: at 57.1 µM (top of the series) unless noted
In short: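 Cytotoxicity counterscreen: after 24 h compound treatment of genome-edited SNCA-luciferase HEK-293 cells, live-cell protease substrate GF-AFC read by fluorescence after 30 min; activity scaled between DMSO (0%) and medium-only (-100%), curves Hill-fitted.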
Potency means the concentration at half of the fitted maximal effect; tags describe the fitted curve by direction and shape.

| Compound | Potency | activity change, negative = cytotoxicity |
| --- | --- | --- |
| Cc1cccc(NC(=O)c2ccc(CNS(=O)(=O)c3ccc4c(c3)C(C)(C)C(=O)N4C)cc2)c1 | inconclusive: 39.8 µM [cytotoxic, single point] |  |
| O=C(O)COc1ccc(-c2nccc3c2C(=O)N(Cc2cccc(C(F)(F)F)c2)CC(CNC(=O)c2cccc(Cl)c2)O3)cc1 (stereo unspecified) |  | inactive: 2.18% |
| COc1ccc(C(=O)NC2CCN(c3cc(C(F)(F)F)ncn3)CC2)c(C)c1 | inconclusive: 7.94 µM [cytotoxic, partial curve, poor fit] |  |
| COc1ccc(-c2nc3cnc(Nc4ccccc4)nc3n(C[C@H]3CCCO3)c2=O)cc1 | inconclusive: 1.78 µM [rising, full curve, poor fit] |  |
| CC(C)(C)c1ccc(-c2cc(C[C@H]3CNCC[C@H]3CC(=O)N3CCC(n4c(=O)[nH]c5ccccc54)CC3)no2)cc1 | inconclusive: 39.8 µM [cytotoxic, partial curve, poor fit] |  |
| COc1ccccc1Cc1nc2ccccc2nc1SCC(=O)Nc1c(C)cccc1C | inconclusive: 39.8 µM [cytotoxic, single point] |  |
| CCOc1ccc(-c2cn3c(n2)sc2cc(C(=O)NCCCN4CCCCC4)ccc23)cc1 | inconclusive: 39.8 µM [cytotoxic, partial curve, poor fit] |  |
| CC1(C)[C@H]2CC[C@@H](CN[S+](=O)([O-])c3ccccc3)[C@@H]1C2 |  | inactive: 1.35% [at 87.6 µM] |
| Cc1cccc(CN2CCc3ncc(C(=O)NCCC(C)C)n3CC2)c1 |  | inactive: -28.1% [at 87.6 µM] |
| O=C(CCCn1c(=O)[nH]c2ccc(Br)cc2c1=O)N1CCN(c2cccc(Cl)c2)CC1 | inconclusive: 39.8 µM [cytotoxic, single point] |  |
| COc1cccc(Nc2ncc3nc(C)c(=O)n(Cc4cccs4)c3n2)c1 | inconclusive: 39.8 µM [rising, single point] |  |
| O=C1N(CCCCOc2ccccc2)c2ccccc2NC12CCNCC2 | inconclusive: 39.8 µM [cytotoxic, single point] |  |
| CCCNC(=O)c1ccc(S(=O)(=O)NCC2(O)CCCNC2)cc1 (stereo unspecified) |  | inactive: 3.27% |
| NC(=O)c1noc2c1CN(c1cc(-c3ccccc3)nc3ccnn13)CC2 |  | inactive: -15.7% |
| CN(C)Cc1ccc(-c2cnn3c(-c4cccc(NC(=O)c5cccc(C(F)(F)F)c5)c4)ccnc23)cc1 | inconclusive: 37.7 µM [cytotoxic, single point] |  |
| Cc1ccc(OC2CCN(C(=O)C3CCCN(CC(N)=O)C3)CC2)cc1 (stereo unspecified) | inconclusive: 0.708 µM [rising, full curve] |  |
| CCc1cccc(NC(=O)C2CCCN2S(=O)(=O)c2ccc3nc(-c4ccccc4)[nH]c3c2)c1 (stereo unspecified) | inconclusive: 14.1 µM [cytotoxic, partial curve] |  |
| COc1ccc(OC)c([C@@H]2Nc3ccc(C(=O)O)cc3[C@@H]3C=CC[C@@H]32)c1 |  | inactive: 4.73% |
| OC[C@@H]1CN(Cc2ccccc2OC(F)(F)F)C[C@H]1c1ccncc1 | inconclusive: 39.8 µM [cytotoxic, single point] |  |
| CC(C)N1C(=O)C2(CCCC2)C1C(=O)N1CCN(c2ncccn2)CC1 (stereo unspecified) | inconclusive: 12.6 µM [cytotoxic, partial curve, poor fit] |  |
| Cc1nc(-c2ccc(F)cc2)n(CC(=O)Nc2cccc(C(F)(F)F)c2)c(=O)c1CCO | inconclusive: 35.5 µM [cytotoxic, single point] |  |

| Compound | Potency | activity change, negative = cytotoxicity |
| --- | --- | --- |
| O=C([C@@H]1C[C@H](Oc2cccnc2)CN1C(=O)c1n[nH]c2ccccc12)N1CCOCC1 | inconclusive: 5.62 µM [cytotoxic, single point] |  |
| CN(Cc1cc(C[C@@H]2C[C@H](NCc3ccccn3)C2(C)C)no1)c1ccccc1 |  | inactive: -9.18% [at 87.6 µM] |
| Cc1ccc2c(c1)c1c(c(=O)n(-c3ccccc3)c(=O)n1CC(=O)NCC1CCCO1)n2C (stereo unspecified) | inconclusive: 6.31 µM [cytotoxic, single point] |  |
| Cc1cccc(NC(=O)C2CCCN2S(=O)(=O)c2ccc3nc(-c4ccccc4)[nH]c3c2)c1 (stereo unspecified) | inconclusive: 28.2 µM [cytotoxic, single point] |  |
| COCCC1(N(C)C)CCN(C(=O)Cc2ccccc2)CC1 | inconclusive: 39.8 µM [cytotoxic, single point] |  |
| CCC(CC)C(=O)N1CC[C@H]2NC(=O)N(c3ccc(C)cc3)C(=O)[C@H]21 |  | inactive: -0.256% [at 87.6 µM] |
| CCCCc1ccc(NC(=O)CN2C(=O)NC(c3ccc(Cl)cc3)C3=C2COC3=O)cc1 (stereo unspecified) | inconclusive: 39.8 µM [cytotoxic, single point] |  |
| Cc1cc(Nc2ccccc2C)n2nc(Cc3ccc(Cl)cc3)nc2n1 | inconclusive: 2.51 µM [rising, full curve, poor fit] |  |
| COC(=O)[C@@H]1Cc2c([nH]c3ccccc23)[C@H]2C[C@@H](NCCCn3ccnc3)C[C@@H](c3ccc(F)cc3)N21 |  | inactive: -24.8% |
| CN(C)CCCNc1cc(N2CCN(C3CCCCC3)CC2)c2noc3c2c1C(=O)c1ccccc1-3 | inconclusive: 39.8 µM [cytotoxic, partial curve, poor fit] |  |
| O=C(NCc1ccc2c(c1)CCN2C(=O)c1ccccc1)Nc1cccc(C(F)(F)F)c1 | inconclusive: 1.12 µM [rising, full curve, poor fit] |  |
| O=c1n(-c2ccncc2)nc2n1CCN(CC1CC1)C2 | inconclusive: 12.6 µM [cytotoxic, single point] |  |
| O=C(NCc1cccc(Cl)c1)c1noc(-c2ccc3c(c2)OCO3)n1 |  | inactive: 0.112% |
| CCN(CC)CCCNC(=O)c1ccc(Cn2c(SCc3ccccc3)nc3cccnc32)cc1 | inconclusive: 1.41 µM [cytotoxic, partial curve, poor fit] |  |
| Cc1c(C(=O)NCc2cccc(Br)c2)oc2ccc3c(c12)C(=O)CC(C)(C)O3 |  | inactive: 5.94% |
| COc1ccc(CCNC(=O)CN2C(=O)COc3ccc(S(=O)(=O)N4CCCC4)cc32)c(OC)c1 | inconclusive: 2.24 µM [cytotoxic, full curve, poor fit] |  |
| Cn1cc(CN(C(=O)Nc2ccccc2)C2CCCCC2)c2ccccc21 | inconclusive: 6.31 µM [cytotoxic, full curve, poor fit] |  |
| Nc1nc(C2CC(O)C2)cc(N2CCCN(C(=O)c3ccoc3)CC2)n1 (stereo unspecified) |  | inactive: -28.5% |
| O=c1[nH]c(N2CCOCC2)nc2c1CCN(Cc1cc(Br)ccc1F)CC2 |  | inactive: -0.248% |
| O=C(CCc1nc2ccccc2s1)N1CCC(c2noc(-c3ccccc3)n2)C1 (stereo unspecified) | inconclusive: 39.8 µM [cytotoxic, single point] |  |
| Cc1cnc(C(=O)N[C@@H]2CCC[C@@H]2C(=O)Nc2cccc(C(C)C)c2)cn1 | inconclusive: 39.8 µM [cytotoxic, partial curve, poor fit] |  |

| Compound | Potency | activity change, negative = cytotoxicity |
| --- | --- | --- |
| CN(Cc1ccc(F)cc1)c1ccc2ncc(Nc3cccc(N[S+](C)(=O)[O-])c3)n2n1 |  | inactive: 12.6% |
| O=C(Nc1ccccc1)N1CCC(N(C(=O)C2CC2)C2CCOCC2)CC1 | inconclusive: 39.8 µM [rising, single point] |  |
| COc1ccc(Cl)cc1NC(=O)CSc1cn(CC(=O)N2CCCCC2)c2ccccc12 | inconclusive: 35.5 µM [cytotoxic, single point] |  |
| O=C(Cc1ccccc1)Nc1cc(-c2cccnc2)nn1-c1ccccc1 |  | inactive: -23.7% |
| COc1ccc(-c2cc(C(F)(F)F)nc(SCCC(=O)Nc3ccc(NC(C)=O)cc3)n2)cc1 | inconclusive: 4.47 µM [rising, full curve, poor fit] |  |
| Cc1noc2c(Nc3ccc(N4CCOCC4)cc3)cc(-c3cccs3)nc12 | inconclusive: 35.5 µM [cytotoxic, single point] |  |
| Cc1nn(-c2ccccc2)c(OC(=O)c2ccccc2Br)c1S(=O)(=O)c1ccccc1 |  | inactive: 19.6% |
| CN(CC1COCCO1)S(=O)(=O)Nc1ccc2ccc3ncc(-c4cnn(C)c4)cc3c(=O)c2c1 (stereo unspecified) | inconclusive: 3.36 µM [cytotoxic, partial curve, poor fit] |  |
| COc1ccccc1-c1cnc(Nc2ccncc2)c2c1CCO2 | inconclusive: 35.5 µM [cytotoxic, single point] |  |
| COc1ccc(-c2nc(SCC(=O)NC(C)CCc3ccccc3)n[nH]2)cc1 (stereo unspecified) | inconclusive: 39.8 µM [cytotoxic, single point] |  |
| Cc1ccc(-n2ncc(C(=O)NCCN3CCc4ccccc4C3)c2C2CCN(C(=O)OC(C)(C)C)CC2)cc1C | inconclusive: 28.2 µM [cytotoxic, single point] |  |
| COCC(=O)NC1CCCN(Cc2cccc(-c3ccc(C)c(Cl)c3)c2)C1 (stereo unspecified) |  | inactive: -5.07% |
| COc1ccc(NC(=O)CSc2nc(-c3cc(OC)c(OC)c(OC)c3)[nH]c2-c2ccc(F)cc2)cc1 | inconclusive: 39.8 µM [cytotoxic, single point] |  |
| CCOCCCNC(=O)CNC(=O)c1ccc(-c2cnc3ccccc3c2)cc1 | inconclusive: 3.16 µM [cytotoxic, partial curve, poor fit] |  |
| O=C(CSc1nc(-c2ccccc2)cn1-c1ccccc1F)Nc1ccc(F)cc1 | inconclusive: 25.1 µM [cytotoxic, single point] |  |
| CC1(C(=O)N2CCC(c3ccccc3)CC2)COCc2cnc(Nc3ccccc3)nc21 (stereo unspecified) | inconclusive: 25.1 µM [cytotoxic, partial curve, poor fit] |  |
| CN1CCCN(C(=O)c2cccc(-c3ccc(C=C4C(=O)Nc5ccc(Cl)cc54)o3)c2)CC1 | inconclusive: 15.2 µM [cytotoxic, partial curve] |  |
| CCOc1ccc2nc(N3CCN(C(=O)c4ccco4)CC3)sc2c1 |  | inactive: -1.91% |
| COc1ccc(C(=O)NCC(c2ccc3c(c2)OCO3)N2CCN(C)CC2)cc1 (stereo unspecified) | inconclusive: 0.891 µM [cytotoxic, full curve] |  |
